This is one part of the list. At the low end of the ranking, values are background and their order means little.

Binding signal (log2 fold change) data for 37 sequences are collected here from paper PMC5892938.

This assay deals with GST-SBP-SLBP (stem-loop binding protein) (UniProt Q14493). The experiment in a line: targeted RNA Bind-n-Seq.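 Note: DESeq read counts versus GST-SBP nonspecific binding control pulldown.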 The note with it: RBNS binding buffer: 25 mM Tris pH 7.5, 150 mM KCl, 3 mM MgCl2, 0.1% Tween, 0.5 mg/mL BSA, 1 mM DTT; 27 nM protein, 750 pM RNA pool; temperature not stated; high values mean tight binding.
For the sequence “GGUCACGUCUCAAUCAACUCUUCGCCCAGGGAAAGCCCUGGUAAUCUCAACAGCUCGCAGUCAAG”, the binding signal (log2 fold change) was -0.179. The result for “GGUCACGUCUCAAUCAACUCUAUUUCCAGGGAAAUCCCUGGCGUAUUCAACAGCUCGCAGUCAAG” reads 0.037. On to “GGUCACGUCUCAAUCAACUCAACUUCCAGGGAAAACCCUGGCUUUUUCAACAGCUCGCAGUCAAG”, for which the binding signal (log2 fold change) is 0.00556.

Take “GGUCACGUCUCAAUCAACUCAACUUCAGGAGUUUUCUCCUGCUUAUUCAACAGCUCGCAGUCAAG”: the binding signal (log2 fold change) was -0.0413. The result for “GGUCACGUCUCAAUCAACUCUUUUUCAGGAGUUUUCUCCUGCAUUCUCAACAGCUCGCAGUCAAG” reads -0.106.

Consider “GGUCACGUCUCAAUCAACUCUAGUCCCAGGGAAAUCCCUGGCAUAUUCAACAGCUCGCAGUCAAG”, for which the binding signal (log2 fold change) is -0.0478. In the case of “GGUCACGUCUCAAUCAACUCAUCAGAGGGGGGGAAAACCCCUUUGCCCUCCACAUCAACAGCUCGCAGUCAAG”, the binding signal (log2 fold change) came out at 0.401. The figure for “GGUCACGUCUCAAUCAACUCAACUCCCAGGGAAAACCCUGGCUUUCUCAACAGCUCGCAGUCAAG” is 0.128; for “GGUCACGUCUCAAUCAACUCUAUCCCCAGGGAAACCCCUGGUAUUUUCAACAGCUCGCAGUCAAG” it is -0.206. The result for “GGUCACGUCUCAAUCAACUCAAUCCCAGGAGUUUACUCCUGUUAAUUCAACAGCUCGCAGUCAAG” reads -0.136; that for “GGUCACGUCUCAAUCAACUCAUCUCCCAGGGAAAGCCCUGGUUAAUUCAACAGCUCGCAGUCAAG”, -0.134; that for “GGUCACGUCUCAAUCAACUCUUUCUCAGGAGUUUCCUCCUGUAAUGUCAACAGCUCGCAGUCAAG”, -0.0675. “GGUCACGUCUCAAUCAACUCUUCUUCCAGGGAAAGCCCUGGCAUAUUCAACAGCUCGCAGUCAAG”: the binding signal (log2 fold change) was -0.0767. The figure for “GGUCACGUCUCAAUCAACUCCUAAGAGGGGGGGAAAACCCCUUUGCCCUCAGAAUCAACAGCUCGCAGUCAAG” is -0.291; for “GGUCACGUCUCAAUCAACUCUCACGAGGGGGGGAAAACCCCUUUACCCUCAACAUCAACAGCUCGCAGUCAAG” it is -0.52; for “GGUCACGUCUCAAUCAACUCUUCUCCAGGAGUUUACUCCUGUUUAUUCAACAGCUCGCAGUCAAG” it is -0.0975.

Turning to “GGUCACGUCUCAAUCAACUCUAAAGAGGGGGGGAAAACCCCUUUGCCCUCAACUUCAACAGCUCGCAGUCAAG”, the binding signal (log2 fold change) came out at 0.209.

Consider “GGUCACGUCUCAAUCAACUCAUCUUCAGGAGUUUUCUCCUGCAAUCUCAACAGCUCGCAGUCAAG”, for which the binding signal (log2 fold change) was 0.0281. The figure for “GGUCACGUCUCAAUCAACUCUAUCCCAGGAGUUUUCUCCUGCUUAUUCAACAGCUCGCAGUCAAG” is 0.204; for “GGUCACGUCUCAAUCAACUCUAUGGAGGGGGGGAAAACCCCUUUACCCUCAACCUCAACAGCUCGCAGUCAAG” it is 0.00788; for “GGUCACGUCUCAAUCAACUCCUAAGAGGGGGGGAAAACCCCUUUGCCCUCAAACUCAACAGCUCGCAGUCAAG” it is 0.0771.

Turning to “GGUCACGUCUCAAUCAACUCAUUUCCCAGGGAAAACCCUGGUAUAUUCAACAGCUCGCAGUCAAG”, the binding signal (log2 fold change) is -0.0565.

In the case of “GGUCACGUCUCAAUCAACUCUAUAGAGGGGGGGAAAACCCCUUUACCCUCACCAUCAACAGCUCGCAGUCAAG”, the binding signal (log2 fold change) stood at 0.221. The figure for “GGUCACGUCUCAAUCAACUCAUCUCCAGGAGUUUGCUCCUGCAAUUUCAACAGCUCGCAGUCAAG” is 0.0771. With “GGUCACGUCUCAAUCAACUCAUUUCCAGGAGUUUCCUCCUGUUAACUCAACAGCUCGCAGUCAAG”, the binding signal (log2 fold change) is -0.0064.

As for “GGUCACGUCUCAAUCAACUCUAUCUCCAGGGAAAGCCCUGGCAUGUUCAACAGCUCGCAGUCAAG”, the binding signal (log2 fold change) is 0.103.

With “GGUCACGUCUCAAUCAACUCUAUCCCCAGGGAAACCCCUGGCUUUUUCAACAGCUCGCAGUCAAG”, the binding signal (log2 fold change) is -0.115. The figure for “GGUCACGUCUCAAUCAACUCAAUGUCAGGAGUUUCCUCCUGUUUUUUCAACAGCUCGCAGUCAAG” is 0.0608; for “GGUCACGUCUCAAUCAACUCAUCCUCCAGGGAAAACCCUGGUUAUCUCAACAGCUCGCAGUCAAG” it is 0.189; for “GGUCACGUCUCAAUCAACUCAUUCUCAGGAGUUUGCUCCUGCUUAUUCAACAGCUCGCAGUCAAG” it is 0.141. The result for “GGUCACGUCUCAAUCAACUCUUCUUCCAGGGAAAUCCCUGGCUUACUCAACAGCUCGCAGUCAAG” reads -0.0266; that for “GGUCACGUCUCAAUCAACUCAAUCCCAGGAGUUUGCUCCUGCUAUUUCAACAGCUCGCAGUCAAG”, -0.0993; that for “GGUCACGUCUCAAUCAACUCUACUCCAGGAGUUUUCUCCUGCUAUUUCAACAGCUCGCAGUCAAG”, 0.125. In the case of “GGUCACGUCUCAAUCAACUCUUCCCCAGGAGUUUUCUCCUGUAAUUUCAACAGCUCGCAGUCAAG”, the binding signal (log2 fold change) came out at 0.0741. For “GGUCACGUCUCAAUCAACUCUUUUCCCAGGGAAAACCCUGGCAAAUUCAACAGCUCGCAGUCAAG”, the binding signal (log2 fold change) is 0.0181. The result for “GGUCACGUCUCAAUCAACUCAAUUCCAGGAGUUUGCUCCUGCUUAUUCAACAGCUCGCAGUCAAG” reads 0.102; that for “GGUCACGUCUCAAUCAACUCAGUCUCAGGAGUUUCCUCCUGCAAUUUCAACAGCUCGCAGUCAAG”, -0.0445.
